Values marked as one replicate rest on one cluster of the flow cell; about a third of the high ones do not repeat.
These sequences were tested on ATP (assay: switch fluorescence ratio, 500 uM ATP over buffer (Cy3 cluster intensity, sum of 5 cycles each) (fold (ratio)); higher = stronger signal-on switching upon ATP binding; sequences stand for … in TCGTCGGCAGCGTCAGATGTGTATAAGAGACAGTTTTTTTTTTTTTTTTTTTTTTTTT…TC). Conditions: aptamer strand: ATP DNA aptamer (quencher-CACCTGGGGGAGTATTGCGGAGGAAGG + anchor), 100 nM annealed; ATP concentration: 500 uM; one replicate.
Outline: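 The fluorescence ratio divides summed target-cycle Cy3 intensity by summed buffer-cycle Cy3 intensity for each cluster and is averaged per switch-domain sequence. Cy3-labelled switching-strand clusters on a modified Illumina MiSeq flow-cell were annealed to 100 nM quencher-labelled ATP aptamer, then imaged in selection buffer and again after 15 min with 500 uM ATP at 22 °C. Five such cycles were run, with NaOH stripping and re-annealing between them, and clusters outside 100-1000 RFU were excluded.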
CCGGTAATTG gave a switch fluorescence ratio of 1.06.
Sequence CCGGTATTCT has a switch fluorescence ratio of 1.11.
CCGGTCCACC gave a switch fluorescence ratio of 1.05.
Sequence CCGGTCCTTT has a switch fluorescence ratio of 0.979.
CCGGTGAGGT showed a switch fluorescence ratio of 1.04.
Work on CCGGTGGCCT yielded a switch fluorescence ratio of 0.987.
CCGGTTCACG gave a switch fluorescence ratio of 1.02.
CCGTAACTAA gave a switch fluorescence ratio of 2.47.
For CCGTAAGTCA, the switch fluorescence ratio was 1.27.
Sequence CCGTAATGAG has a switch fluorescence ratio of 2.16.
CCGTACGTCG was tested, and the switch fluorescence ratio was 0.959.
CCGTACTTGC showed a switch fluorescence ratio of 1.69.
With CCGTATTCGA the switch fluorescence ratio was 1.09.
CCGTCACGTC gave a switch fluorescence ratio of 1.33.
CCGTCCCCTA was tested, and the switch fluorescence ratio was 1.29.
Work on CCGTCCGACT yielded a switch fluorescence ratio of 1.2.
Sequence CCGTCGAGGG has a switch fluorescence ratio of 1.03.
For CCGTCGCGTT, the switch fluorescence ratio was 1.63.
Work on CCGTCTCAAG yielded a switch fluorescence ratio of 1.07.
CCGTGGAAAA gave a switch fluorescence ratio of 3.79.
Sequence CCGTGGGATA has a switch fluorescence ratio of 1.03.
For CCGTGGGGTT, the switch fluorescence ratio was 1.03.
CCGTGTCCCG was tested, and the switch fluorescence ratio was 1.04.
In the case of CCGTGTGCCA, the switch fluorescence ratio is reported as 1.08.
CCGTTAAACC showed a switch fluorescence ratio of 1.25.
Work on CCGTTAGGAA yielded a switch fluorescence ratio of 1.01.
Sequence CCGTTCAACA has a switch fluorescence ratio of 1.09.
In the case of CCGTTCATTT, the switch fluorescence ratio is reported as 0.97.
With CCGTTGATTG the switch fluorescence ratio was 0.997.
Work on CCGTTTACGA yielded a switch fluorescence ratio of 1.4.
CCGTTTGCAC was tested, and the switch fluorescence ratio was 2.15.
With CCGTTTGCGA the switch fluorescence ratio was 2.4.
CCGTTTGTTA was tested, and the switch fluorescence ratio was 1.04.
With CCGTTTTACC the switch fluorescence ratio was 1.45.
CCTAAAACAT gave a switch fluorescence ratio of 1.02.
CCTAAAGTAA was tested, and the switch fluorescence ratio was 1.27.
In the case of CCTAAATGAC, the switch fluorescence ratio is reported as 1.2.
For CCTAACGATG, the switch fluorescence ratio was 1.14.
In the case of CCTAAGGAAT, the switch fluorescence ratio is reported as 1.17.
CCTAATCTC gave a switch fluorescence ratio of 0.982.
CCTAATGCGT gave a switch fluorescence ratio of 1.08.
For CCTAATTGGC, the switch fluorescence ratio was 0.957.
Work on CCTACAGATT yielded a switch fluorescence ratio of 1.03.
Sequence CCTACTATTC has a switch fluorescence ratio of 1.2.
In the case of CCTACTGACC, the switch fluorescence ratio is reported as 1.39.
In the case of CCTACTGGT, the switch fluorescence ratio is reported as 1.02.
Sequence CCTACTTTGT has a switch fluorescence ratio of 0.985.
In the case of CCTAGAACCT, the switch fluorescence ratio is reported as 1.02.
Sequence CCTAGAGTTT has a switch fluorescence ratio of 0.958.
CCTAGGAACG gave a switch fluorescence ratio of 0.991.
In the case of CCTAGGGATA, the switch fluorescence ratio is reported as 0.975.
In the case of CCTAGGGGTA, the switch fluorescence ratio is reported as 1.05.
CCTAGTAAGT was tested, and the switch fluorescence ratio was 1.05.
With CCTAGTCCAC the switch fluorescence ratio was 1.09.
Work on CCTAGTGTGC yielded a switch fluorescence ratio of 1.17.
CCTAGTGTGG gave a switch fluorescence ratio of 1.01.
CCTATAAGTC was tested, and the switch fluorescence ratio was 1.03.
CCTATACAGG gave a switch fluorescence ratio of 1.12.
CCTATATGC gave a switch fluorescence ratio of 0.997.
Work on CCTATGTAAT yielded a switch fluorescence ratio of 3.32.
For CCTATTATAG, the switch fluorescence ratio was 1.01.
In the case of CCTATTGAGG, the switch fluorescence ratio is reported as 1.09.
With CCTATTTGCA the switch fluorescence ratio was 1.14.
In the case of CCTCAGGTCC, the switch fluorescence ratio is reported as 1.37.
Work on CCTCAGGTTG yielded a switch fluorescence ratio of 2.33.
Work on CCTCATATCG yielded a switch fluorescence ratio of 1.06.
CCTCATATTT gave a switch fluorescence ratio of 1.08.
CCTCCCCCCG gave a switch fluorescence ratio of 2.37.
With CCTCCCCGTA the switch fluorescence ratio was 1.44.
Sequence CCTCCGCCGT has a switch fluorescence ratio of 1.4.
In the case of CCTCGACAGA, the switch fluorescence ratio is reported as 1.21.
With CCTCGATAGG the switch fluorescence ratio was 1.06.
CCTCGGGCAG was tested, and the switch fluorescence ratio was 1.59.
CCTCGGGGGC showed a switch fluorescence ratio of 1.19.
In the case of CCTCGGGTCT, the switch fluorescence ratio is reported as 1.17.
CCTCTACTTG showed a switch fluorescence ratio of 1.05.
In the case of CCTCTCGTA, the switch fluorescence ratio is reported as 1.78.
CCTCTCGTTC was tested, and the switch fluorescence ratio was 3.43.
CCTCTGAGTG was tested, and the switch fluorescence ratio was 1.44.
For CCTCTTAGTT, the switch fluorescence ratio was 1.06.
Sequence CCTGAACCTG has a switch fluorescence ratio of 1.12.
CCTGACAACA gave a switch fluorescence ratio of 1.11.
Work on CCTGACGGAC yielded a switch fluorescence ratio of 1.64.
With CCTGAGGTTG the switch fluorescence ratio was 1.02.
In the case of CCTGAGTACC, the switch fluorescence ratio is reported as 1.02.
CCTGATACGA was tested, and the switch fluorescence ratio was 1.42.
Work on CCTGATCTTT yielded a switch fluorescence ratio of 0.972.
CCTGATGCGC gave a switch fluorescence ratio of 1.25.
CCTGCACGCG gave a switch fluorescence ratio of 1.09.
For CCTGCATGTT, the switch fluorescence ratio was 1.28.
CCTGCCAACT showed a switch fluorescence ratio of 1.27.
In the case of CCTGCGTAGA, the switch fluorescence ratio is reported as 1.36.
CCTGCGTGTC was tested, and the switch fluorescence ratio was 1.76.
With CCTGCTAGA the switch fluorescence ratio was 1.16.
CCTGCTAGAG was tested, and the switch fluorescence ratio was 1.39.
For CCTGGACCCC, the switch fluorescence ratio was 1.12.
Work on CCTGGACGGA yielded a switch fluorescence ratio of 0.989.
CCTGGACGTA gave a switch fluorescence ratio of 0.989.
With CCTGGATTTG the switch fluorescence ratio was 1.04.
In the case of CCTGGCCTCG, the switch fluorescence ratio is reported as 1.07.
CCTGGGAGAG showed a switch fluorescence ratio of 1.03.
Sequence CCTGGGGGAC has a switch fluorescence ratio of 1.04.
With CCTGGGTGCC the switch fluorescence ratio was 1.13.
For CCTGGTCGTA, the switch fluorescence ratio was 0.984.
Sequence CCTGTAAAGG has a switch fluorescence ratio of 1.02.
CCTGTACAGA gave a switch fluorescence ratio of 0.979.
Work on CCTGTAGAAG yielded a switch fluorescence ratio of 1.01.
For CCTGTAGGTG, the switch fluorescence ratio was 1.63.
Sequence CCTGTATTTC has a switch fluorescence ratio of 0.994.
In the case of CCTGTCTTGG, the switch fluorescence ratio is reported as 0.97.
Sequence CCTGTTCGGA has a switch fluorescence ratio of 1.
CCTGTTTTTG was tested, and the switch fluorescence ratio was 0.972.
CCTTAAAATG was tested, and the switch fluorescence ratio was 1.08.
Sequence CCTTAAAGTG has a switch fluorescence ratio of 1.02.
With CCTTAACTT the switch fluorescence ratio was 1.06.
CCTTAAGTAA gave a switch fluorescence ratio of 2.11.
Sequence CCTTACCTAC has a switch fluorescence ratio of 2.11.
Work on CCTTAGGTAG yielded a switch fluorescence ratio of 1.05.
Sequence CCTTATGGGT has a switch fluorescence ratio of 0.961.
CCTTATGGTA was tested, and the switch fluorescence ratio was 1.02.
CCTTATTCCC showed a switch fluorescence ratio of 1.36.
CCTTATTGCT showed a switch fluorescence ratio of 0.988.
In the case of CCTTCATGCA, the switch fluorescence ratio is reported as 1.99.
Sequence CCTTCCTGGG has a switch fluorescence ratio of 1.9.
CCTTCGGCAG was tested, and the switch fluorescence ratio was 4.11.
Sequence CCTTCGGCGT has a switch fluorescence ratio of 1.
Work on CCTTCTCGTA yielded a switch fluorescence ratio of 1.07.
Work on CCTTCTTCAT yielded a switch fluorescence ratio of 1.03.
For CCTTGACGCA, the switch fluorescence ratio was 1.06.
With CCTTGAGTTC the switch fluorescence ratio was 1.02.
In the case of CCTTGCACA, the switch fluorescence ratio is reported as 3.14.
In the case of CCTTGCAGAG, the switch fluorescence ratio is reported as 1.96.
Work on CCTTGCGTCA yielded a switch fluorescence ratio of 1.13.
For CCTTGCTTGA, the switch fluorescence ratio was 1.03.
With CCTTGGGGCT the switch fluorescence ratio was 1.16.
Sequence CCTTGTAACC has a switch fluorescence ratio of 1.15.
Sequence CCTTGTTAGC has a switch fluorescence ratio of 1.1.
Work on CCTTTAAAGG yielded a switch fluorescence ratio of 0.998.
With CCTTTACGCT the switch fluorescence ratio was 1.52.
CCTTTATGAG gave a switch fluorescence ratio of 1.
CCTTTATTGG was tested, and the switch fluorescence ratio was 0.97.
Sequence CCTTTCAGGT has a switch fluorescence ratio of 0.96.
For CCTTTGAAAT, the switch fluorescence ratio was 1.33.
Sequence CCTTTGACGT has a switch fluorescence ratio of 1.12.
Sequence CCTTTGAGAC has a switch fluorescence ratio of 1.09.
For CCTTTGGGAC, the switch fluorescence ratio was 1.06.
CCTTTGTAGC showed a switch fluorescence ratio of 1.79.
For CCTTTTCATC, the switch fluorescence ratio was 0.985.
For CCTTTTCTTC, the switch fluorescence ratio was 0.964.
Work on CGAAAAACA yielded a switch fluorescence ratio of 1.02.
For CGAAAAACTG, the switch fluorescence ratio was 1.04.
CGAAAAGAGC showed a switch fluorescence ratio of 0.972.
CGAAAAGCGA was tested, and the switch fluorescence ratio was 1.03.
With CGAAAATTTG the switch fluorescence ratio was 1.02.
For CGAAACAGAA, the switch fluorescence ratio was 0.999.
For CGAAAGGGA, the switch fluorescence ratio was 0.975.
CGAAAGTCGA showed a switch fluorescence ratio of 0.985.
Work on CGAAATACCC yielded a switch fluorescence ratio of 2.75.
With CGAAATCGCT the switch fluorescence ratio was 0.991.
For CGAACAAGTC, the switch fluorescence ratio was 0.997.
CGAACCTCGT was tested, and the switch fluorescence ratio was 1.06.
With CGAACGTACC the switch fluorescence ratio was 1.55.
With CGAACGTGCG the switch fluorescence ratio was 1.02.
In the case of CGAACTTAAG, the switch fluorescence ratio is reported as 0.94.
CGAAGAAGGG gave a switch fluorescence ratio of 0.949.
With CGAAGGATGG the switch fluorescence ratio was 0.974.
Sequence CGAAGGCAAA has a switch fluorescence ratio of 2.16.
CGAAGGGAGG gave a switch fluorescence ratio of 1.08.
For CGAAGGTTAT, the switch fluorescence ratio was 1.02.
CGAAGTTCGC gave a switch fluorescence ratio of 0.96.
For CGAATAAG, the switch fluorescence ratio was 1.04.
In the case of CGAATAGCTC, the switch fluorescence ratio is reported as 1.11.
In the case of CGAATATGTT, the switch fluorescence ratio is reported as 1.02.
In the case of CGAATCTCTG, the switch fluorescence ratio is reported as 0.96.
With CGAATGACAA the switch fluorescence ratio was 1.04.
CGAATGCGTC showed a switch fluorescence ratio of 1.04.
CGAATTATTG showed a switch fluorescence ratio of 0.97.
CGAATTGTAA was tested, and the switch fluorescence ratio was 1.
Work on CGAATTTACT yielded a switch fluorescence ratio of 0.987.
Work on CGAATTTCCA yielded a switch fluorescence ratio of 1.01.
With CGACAATATT the switch fluorescence ratio was 1.01.
CGACAGCGAT was tested, and the switch fluorescence ratio was 5.64.
For CGACATCCGC, the switch fluorescence ratio was 2.67.
Sequence CGACATGTTG has a switch fluorescence ratio of 1.04.
With CGACCGAGA the switch fluorescence ratio was 1.03.
CGACCGAGT was tested, and the switch fluorescence ratio was 1.06.
CGACCTATAC showed a switch fluorescence ratio of 2.89.
With CGACCTTATT the switch fluorescence ratio was 1.02.
Work on CGACGAAGCG yielded a switch fluorescence ratio of 1.01.
Sequence CGACGAGGTT has a switch fluorescence ratio of 1.11.
CGACGCCTGT showed a switch fluorescence ratio of 1.75.
CGACGGCCAG gave a switch fluorescence ratio of 1.05.
CGACGGCGAC gave a switch fluorescence ratio of 1.15.
Work on CGACGGGTAG yielded a switch fluorescence ratio of 1.02.
With CGACGGTCAA the switch fluorescence ratio was 2.17.
In the case of CGACGTTTTA, the switch fluorescence ratio is reported as 1.17.
For CGACTATTGA, the switch fluorescence ratio was 0.986.
For CGACTCAAGA, the switch fluorescence ratio was 2.81.
CGACTGTAAT was tested, and the switch fluorescence ratio was 1.96.
CGAGACCATA was tested, and the switch fluorescence ratio was 1.09.
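Further: ATP exposure 15 min at 22 °C before imaging.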
